Results published in publication PMC4336329 (PLoS ONE, 2015).
The whole screen tested about 310,000 compounds, of which about 2,200 (0.71%) showed an effect of 50% or more. Effects have a minus sign here. This is one part of the list.

Target: human ether-à-go-go-related gene (hERG) potassium channel (human, UniProt Q12809)
Experiment: primary screen, population patch clamp on CHO cells stably expressing hERG

human ether-à-go-go-related gene (hERG) potassium channel, sequence (Q12809 whole entry, looked up): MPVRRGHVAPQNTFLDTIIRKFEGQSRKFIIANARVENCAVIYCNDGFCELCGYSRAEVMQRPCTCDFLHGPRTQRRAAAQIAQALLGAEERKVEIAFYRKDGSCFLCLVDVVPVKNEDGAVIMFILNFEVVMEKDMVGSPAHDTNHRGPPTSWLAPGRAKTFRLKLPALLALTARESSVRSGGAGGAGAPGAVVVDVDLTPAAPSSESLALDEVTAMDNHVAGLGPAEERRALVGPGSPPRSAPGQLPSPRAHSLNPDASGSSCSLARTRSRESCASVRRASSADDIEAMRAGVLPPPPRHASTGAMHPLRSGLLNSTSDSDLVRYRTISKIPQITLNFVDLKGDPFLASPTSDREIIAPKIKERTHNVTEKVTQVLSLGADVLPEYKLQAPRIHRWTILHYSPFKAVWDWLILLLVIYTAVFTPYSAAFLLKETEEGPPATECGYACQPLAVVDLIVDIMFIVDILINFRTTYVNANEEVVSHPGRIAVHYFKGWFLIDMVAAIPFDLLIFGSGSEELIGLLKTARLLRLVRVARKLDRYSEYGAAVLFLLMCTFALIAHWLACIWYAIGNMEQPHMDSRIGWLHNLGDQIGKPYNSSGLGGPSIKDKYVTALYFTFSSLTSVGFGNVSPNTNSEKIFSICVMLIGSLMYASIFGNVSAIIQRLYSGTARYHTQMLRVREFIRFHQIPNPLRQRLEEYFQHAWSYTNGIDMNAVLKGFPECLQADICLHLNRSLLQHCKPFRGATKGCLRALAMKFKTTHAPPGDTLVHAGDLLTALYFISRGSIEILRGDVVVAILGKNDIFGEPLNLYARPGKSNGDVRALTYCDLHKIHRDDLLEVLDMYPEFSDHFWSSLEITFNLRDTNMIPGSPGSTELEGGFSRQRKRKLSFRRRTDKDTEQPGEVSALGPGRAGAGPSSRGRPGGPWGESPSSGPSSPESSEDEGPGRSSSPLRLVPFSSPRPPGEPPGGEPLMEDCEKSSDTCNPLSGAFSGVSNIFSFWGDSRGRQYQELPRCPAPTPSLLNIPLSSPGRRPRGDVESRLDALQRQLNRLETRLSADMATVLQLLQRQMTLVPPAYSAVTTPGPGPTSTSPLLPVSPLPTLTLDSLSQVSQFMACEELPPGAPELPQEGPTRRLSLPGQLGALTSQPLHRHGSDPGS

Row | Compound | hERG current change (%, negative = inhibition) at 1uM [%]
1 | C=CCOc1ccc(/C=C/C(=O)OCC(=O)NC(C)c2ccc(F)cc2)cc1 (stereo not drawn) | 9.9
2 | O=C(O)C1Cc2[nH]cnc2C(c2ccccc2O)N1 (stereo not drawn) | 11.7
3 | CCc1n[nH]c2c1/C(=N\O)CC(c1ccccc1)C2 (stereo not drawn) | -18.4
4 | O=C(O)c1cnn2c1NC(c1cccs1)CC2C(F)(F)F (stereo not drawn) | 6.11
5 | CC(C)=NOC(=O)c1c(C)noc1-c1snnc1C | 13.2
6 | Cc1c(Cl)cnc(NC(=O)COC(=O)CCS(=O)(=O)c2ccccc2)c1Cl | 5.79
7 | Cc1ccc(S(=O)(=O)NC(=O)N(C)C2CCCCC2)cc1 | 11.4
8 | COc1ccccc1Nc1nc2c(s1)CCC2 | 0.431
9 | CCOC(=O)c1nc2ccccc2c(=O)n1-c1ccc(C)cc1C | 7.22
10 | CCCCc1ccc(NC(=O)Nc2cnccn2)cc1 | -2
11 | CCCOc1ccc(/C=N/NC(=O)C2CCCN2S(=O)(=O)c2ccc(Cl)cc2)cc1 (stereo not drawn) | 7.59
12 | CC[C@H](C)Cc1cn([C@@H](CCCN=C(N)N)C(=O)NCCCCCCCCCCC(=O)N2CCNCC2)nn1 | 12.8
13 | Cc1ccc(COc2coc(CO)cc2=O)cc1 | 2.48
14 | CCOc1ccc(N2C(=O)C3C(c4ccccc4)=NN(c4ccccc4)C3C2=O)cc1 (stereo not drawn) | 5.52
15 | O=C1CNC(=S)N1Cc1ccc(F)cc1 | 17
16 | CCOC(=O)c1sc(NC(=O)/C=C/c2cnn(CC)c2C)c(C(=O)OCC)c1C | 15.6
17 | CCOC(=O)C1C(C)N=C2SCC(=O)N2C1c1cccc(Br)c1 (stereo not drawn) | -2.89
18 | Cc1cc2c(=O)n(Cc3ccco3)c(SCC(=O)N3CCCc4ccccc43)nc2s1 | 0.209
19 | O=C(NCCc1c[nH]c2ccccc12)c1cnc2n(c1=O)CCS2 | 8.73
20 | COCCNC(=O)CNS(=O)(=O)c1ccc2nc(C)sc2c1 | 4.83
21 | Cc1cc(C)cc(C(=O)OCC(=O)NC(=O)NC2CCCC2)c1 | 11.6
22 | CCc1ccccc1NC(=O)c1nnn(CC(=O)Nc2cccc(C)c2C)c1N | 1.6

Row | Compound | hERG current change (%, negative = inhibition) at 1uM [%]
23 | Cc1ccc(S(=O)(=O)NCCC(=O)N2CCN(c3cccc(Cl)c3)CC2)cc1C | 15.2
24 | CC(=O)Nc1ccc(S(=O)(=O)N(C)CC(=O)NC2=NCCS2)cc1 | 5.78
25 | Cn1cnc2c1c(=O)n(Cc1cccc(Br)c1)c(=O)n2C | -12.8
26 | Cc1cc(OCC(=O)N2CCC(C(N)=O)CC2)c2c(C)c(C)c(=O)oc2c1 | 12.9
27 | CC(C)CC(C(=O)NCc1ccccn1)N1C(=O)c2ccccc2C1=O (stereo not drawn) | 12.5
28 | CN(C)S(=O)(=O)Oc1cccc(C(=O)Nc2ccc([N+](=O)[O-])cc2)c1 | 14.3
29 | COc1cc(C(=S)N2CCCC2)ccc1OCc1ccccc1 | 9.3
30 | COc1cccc(O)c1CN1CCC(C(=O)Nc2ccc(Oc3cccnc3)cc2)CC1 | -0.888
31 | Cc1ccc(C(C(=O)NC2CCCCC2)N(C(=O)Cc2c[nH]c3ccccc23)c2ccccc2)o1 (stereo not drawn) | 7.19
32 | CCOC(=O)N1CCC(NC(=O)C2CCCCN2S(=O)(=O)c2ccc(F)cc2)CC1 (stereo not drawn) | 10.9
33 | CC(NC(=O)Nc1nnc(C(F)(F)F)s1)N1C(=O)C2C3C=CC(C3)C2C1=O (stereo not drawn) | -14.7
34 | Cc1c(/C=C2\SC(=O)N(CC(=O)Nc3ccc4c(c3)OCO4)C2=O)c2ccccc2n1C | 9.78
35 | Cc1ccc(-n2c(SCC(=O)NCCN3C(=O)CSC3=O)nnc2-c2ccccc2F)cc1 | 18.8
36 | O=C(COC(=O)CN1C(=O)COc2ccccc21)NC1CCCCC1 | 1.52
37 | Cc1ccc(CCNC(=O)C2CCCN2S(=O)(=O)c2ccc3c(c2)CCC(=O)N3)cc1 (stereo not drawn) | -5.74
38 | CC(=O)Nc1ccc(S(=O)(=O)N(C)CC(=O)Nc2ccc(Br)cc2F)cc1 | 6.13
39 | COc1ccc(CCNC(=O)C/C(C)=N/NC(=O)c2cnccn2)cc1 | 15.7
40 | CCC(=O)Nc1cccc(NC(=S)NC(=O)c2cc3ccccc3o2)c1 | 17.5
41 | CN1C2=NCCN2C(=O)c2cc(Cl)ccc21 | 11.9
42 | Cc1cc(C(=O)NP(=O)(N2CCOCC2)N2CCOCC2)c(C)n1C1CC1 | 7.72
43 | COc1ccc(CN(C)Cc2c(O)ccc3ccccc23)cc1 | 2.84
44 | Cn1c(=O)c(C(=O)COc2ccc(C#N)cc2)c(N)n(Cc2ccccc2)c1=O | -2.83

Row | Compound | hERG current change (%, negative = inhibition) at 1uM [%]
45 | CCCC(=O)Nc1c(-c2ccccc2Cl)c(=O)c2ccccc2n1C | 21.7
46 | CC(Sc1nnc2ccccn12)C(N)=O (stereo not drawn) | 6.22
47 | CC1CCC(=C(C#N)C(=O)Nc2cccc(Cl)c2)CC1 (stereo not drawn) | 10.6
48 | CC(NC(=O)c1cccnc1)C(c1cccs1)N1CCN(C)CC1 (stereo not drawn) | 8.63
49 | Cc1cc(C)cc(NC(=O)COC(=O)c2ccc(CN3CCCC3=O)cc2)c1 | -2.11
50 | CC1(C)NC(=O)N(CCCCOc2ccccc2[N+](=O)[O-])C1=O | 2.48
51 | CCOC(=O)c1oc2ccc(S(=O)(=O)n3nc(-c4ccc(Cl)cc4)cc3N)cc2c1C | 6.88
52 | CCOC(=O)C1CCN(S(=O)(=O)c2ccc(OCC)cc2)CC1 | -8.01
53 | CCn1c(SCC(=O)Nc2nccs2)nnc1-c1ccccn1 | 7.72
54 | COc1ccccc1C(=O)NNC(=O)C(=O)Nc1ccc(C)cc1 | 13.5
55 | Cn1c(=O)c(=O)n(C)c2cc(S(=O)(=O)N3CCCC3C(=O)NCc3cccnc3)ccc21 (stereo not drawn) | 6.41
56 | CN(C(=O)CSc1nnc(Nc2ccccc2)s1)c1c(N)n(Cc2ccccc2)c(=O)[nH]c1=O | 11.7
57 | O=C(Nc1ccc(Cl)cc1)[C@@H]1[C@@H]2C(=O)N(c3cccc(F)c3)C(=O)[C@@H]2[C@H]2C=CC=NN21 | -0.0466
58 | CCOc1ccccc1C1C(C(=O)OC)=CN(C)C=C1C(=O)OC | 10.4
59 | COc1ccc(C2C(=O)c3ccccc3C2=O)c(OC)c1 | 5.28
60 | COc1ccc(NC(=O)COC(=O)/C=C/C(=O)OCC(=O)Nc2ccc(OC)c(Cl)c2)cc1Cl | 17.5
61 | O=C(NC(Cc1ccccc1)C(=O)O)/C(=C/c1ccc([N+](=O)[O-])cc1)NC(=O)c1ccc(Br)o1 (stereo not drawn) | 12.9
62 | COc1cc(/C=N/Nc2ccc(Cl)c(C(=O)O)c2)ccc1OC(=O)c1ccc(F)cc1 | 4.99
63 | O=C(Nc1ccccc1C(=O)N1CCCCCC1)c1ccccc1 | 12.9
64 | COCCNCC#CCOc1ccc(OC)cc1 | 4.32
65 | O=S(=O)(Cc1ccccc1)N1CCN(c2ccccc2)CC1 | 9.65
66 | CN1C(C(=O)NCc2ccccc2)CC2Cn3c(nc4cc(Cl)c(Cl)cc43)C21 (stereo not drawn) | -11.5

Row | Compound | hERG current change (%, negative = inhibition) at 1uM [%]
67 | COc1ccc(N(CC(=O)NC(C)c2ccccc2)S(=O)(=O)c2ccc(C)cc2)cc1 (stereo not drawn) | 0.245
68 | Cc1cc(C)cc(N(CC(=O)Nc2ccccc2-c2ccccc2)S(=O)(=O)c2ccccc2)c1 | 14.7
69 | CCOC(=O)C1=C(O)/C(=C/c2cn(CC(=O)NCC3CCCO3)c3ccccc23)SC1=Nc1ccc(C)cc1 (stereo not drawn) | 4.15
70 | CCc1nnc(NC(=O)C2c3ccccc3Oc3ccccc32)s1 | 6.86
71 | O=C(CS(=O)(=O)Cc1ccccc1)Nc1nnc(C2CCCCC2)s1 | -11.9
72 | Cc1ccc(-c2ccc(/C=N/NC(=O)CN3CCOCC3)o2)cc1[N+](=O)[O-] | -6.02
73 | COc1ccc(CN2C(=O)NC3(CCCc4ccccc43)C2=O)cc1F (stereo not drawn) | 0.226
74 | C/C(=N\NC(=O)C1CCCN(S(=O)(=O)c2ccccc2)C1)c1cccnc1 (stereo not drawn) | 6.08
75 | CCN(CC(=O)Nc1ccc(OC(F)F)cc1)C1CCCCC1 | -61.6
76 | CC(C)(O)C#Cc1ccccc1C(=O)NC(CC(N)=O)C(=O)O (stereo not drawn) | 12.1
77 | CCCn1c(N2CCN(CC(=O)NCc3cccs3)CC2)nc2ccccc21 | -62.7
78 | COCCCN(C(=O)CC1OC(=O)c2ccccc21)c1c(N)n(Cc2ccccc2)c(=O)[nH]c1=O (stereo not drawn) | 17.8
79 | O=C(NCCOc1ccccc1)c1cc([N+](=O)[O-])ccc1N1CCOCC1 | -26.2
80 | CCc1nnc(NC(=O)CSc2nnc(-c3cccnc3)n2CCc2ccccc2)s1 | -2.58
81 | O=c1[nH]c(N/N=C\c2ccc3c(c2)OCO3)nc2ccccc12 | -0.163
82 | CCCCn1c(SCC(=O)NC(C)(C)C)nnc1-c1ccco1 | 11
83 | CC1(C)CC(=O)C2=C(C1)NCN(CCCN1CCOCC1)C2 | 16
84 | O=S(=O)(NCCC1CC1(Cl)Cl)c1ccccc1 (stereo not drawn) | 12.4
85 | CCOC(=O)C1C2C=CC3(CN(Cc4cccs4)C(=O)C13)O2 (stereo not drawn) | 6.24
86 | CCC(=O)N(CCCN(C)C)c1nc(-c2cc(OC)ccc2OC)cs1.Cl | -8.76
87 | CCc1[nH]nc2c1C(c1ccc(C)o1)C(C#N)=C(N)O2 (stereo not drawn) | 4.78
